From PubChem BioAssay AID1745845 (National Center for Advancing Translational Sciences (NCATS), 2022)
About 2,600 (0.72%) of roughly 360,000 compounds were called active. This list was built around the results that the source calls inconclusive (neither active nor inactive); the mix of calls is not that of the screen. Calls follow the shape of the dose curve; as a rule, active = well fitted inhibition curve with a large enough effect; inconclusive = small, poorly fitted or top-dose-only effect; inactive = no such curve, though single readings can be large or run the other way. A potency beside an inconclusive call is a rough fit, not a confirmed value.
% is scaled to controls: 0 for no effect and ±100 for the full control effect; potency is read from the fitted curve at half-maximal effect; tags tell the direction and shape of the fitted curve.

Experiment: Primary qHTS for Inhibitors of ATXN expression; also: nearly all actives have a fitted effect of over 55% in size
Conditions: HEK-293 ATXN2-luciferase reporter, luminescence, 24 h; activity change, negative = inhibition: at 57 µM (top of the series)
In short: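 qHTS (up to 57 uM final) was run with 24 h compound exposure of reporter cells at 37 °C. Each well was multiplexed: SteadyGlo luminescence measured ATXN2-luciferase expression after a fluorogenic Gly-Phe-AFC viability readout (25 uM final).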
In the case of `CCOC(=O)C1CCCN(C(=O)c2[nH]c3ccccc3c2Sc2ccc(Cl)cc2)C1` (configuration not stated), the Potency is reported as inconclusive: 39.8 µM [inhibitor, single point].
With `COC(=O)c1cc(NC(=O)/C=C/c2ccc3c(c2)OCO3)cc(C(=O)OC)c1` the Potency was inconclusive: 25.1 µM [inhibitor, partial curve].
For `CCCCNS(=O)(=O)c1ccc2nc(-c3cccnc3)cc(C(=O)NC(C)CC)c2c1` (configuration not stated), the Potency was inconclusive: 7.08 µM [inhibitor, partial curve, poor fit].
In the case of `Cc1c(C(=O)Nc2cccc(Cl)c2)oc2ccc(S(=O)(=O)N3CCC4(CC3)OCCO4)cc12`, the “activity change, negative = inhibition” value is reported as inactive: -21.2%.
In the case of `O=C1CCNc2ccc(-c3ccccc3)cc21`, the Potency is reported as inconclusive: 39.8 µM [inhibitor, single point].
For `COc1cc2c(cc1O)CCC1C2CC[C@@]2(C)C1CC[C@@H]2O` (some centres not stated), the Potency was inconclusive: 13.7 µM [inhibitor, partial curve, poor fit].
With `Cc1ccc(S(=O)(=O)N2CCC(n3c(C)nc4cccnc43)CC2)c(C)c1` the Potency was inconclusive: 39.8 µM [inhibitor, single point].
For `CCn1ccnc1C(O)c1cccc(OC)c1` (configuration not stated), the Potency was inconclusive: 35.5 µM [inhibitor, single point].
For `O=C(c1cccnc1)N1N=C(C2CCCCC2)CC1(O)C(F)(F)F` (configuration not stated), the “activity change, negative = inhibition” value was inactive: 8.49%.
In the case of `Cc1cccc(NC(=O)CN2CCN(C(=O)c3ccc(-c4nc5ccccc5s4)o3)CC2)c1C`, the Potency is reported as inconclusive: 39.8 µM [inhibitor, single point].
For `Clc1cccc(OCCN2CCN(CCOc3cccc(Cl)c3)CC2)c1`, the Potency was inconclusive: 31.6 µM [inhibitor, single point].
With `O=[N+]([O-])c1cc(CN2CCN(c3ccccc3)CC2)c(O)c2ncccc12` the Potency was inconclusive: 3.16 µM [inhibitor, full curve].
For `Cc1ccc(Nc2nc3nonc3[nH]c2=O)cc1Cl`, the Potency was inconclusive: 39.8 µM [inhibitor, single point].
For `O=C1NC(=O)C(=Cc2ccco2)S1`, the “activity change, negative = inhibition” value was inactive: 10.6%.
For `COc1c(Br)cc(Br)cc1/C=N/NC(=O)c1cccnc1`, the activity change, negative = inhibition was inconclusive: -39.9% [inhibitor].
In the case of `O=C(Nc1nc(-c2ccccc2)cs1)Nc1ccc(F)cc1F`, the “activity change, negative = inhibition” value is reported as inactive: -6.37%.
With `CCOC(=O)Cn1c(CN2CCN(c3cccc(Cl)c3)CC2)nc2c1c(=O)[nH]c(=O)n2C` the Potency was inconclusive: 15.8 µM [inhibitor, partial curve].
With `CC1CCN(c2ccccc2NC(=O)c2ccc(N3CCOCC3)c([N+](=O)[O-])c2)CC1` the Potency was inconclusive: 22.4 µM [inhibitor, partial curve, poor fit].
With `CCCCN1C(=O)C(=O)c2cc(Cl)ccc21` the Potency was inconclusive: 25.1 µM [inhibitor, partial curve, poor fit].
In the case of `CCOc1ccc(-c2noc(CSc3nnc(Cc4ccccc4)n3-c3cccc(C)c3)n2)cc1`, the Potency is reported as inconclusive: 39.8 µM [inhibitor, single point].
In the case of `COc1ccccc1OC(C)C(=O)Nc1ccc(S(=O)(=O)N2CCN(C)CC2)cc1` (configuration not stated), the “activity change, negative = inhibition” value is reported as inactive: -0.286%.
For `S=C(Nc1cc(Cl)cc(Cl)c1)NC1CCN(Cc2ccccc2)CC1`, the Potency was inconclusive: 39.8 µM [inhibitor, single point].
In the case of `CCOC(=O)N(C)c1c(CC)nc2c(OCCC3CCCCC3)cccn12`, the Potency is reported as inconclusive: 39.8 µM [inhibitor, single point].
With `CC1CCN(C(=O)CCCN2C(=O)c3cccnc3Oc3ccc(Cl)cc32)CC1` the Potency was inconclusive: 39.8 µM [inhibitor, single point].
For `Cc1ccc(Oc2ccc(C(=O)NCc3ccncc3)cc2)cc1`, the Potency was inconclusive: 0.947 µM [inhibitor, full curve, poor fit].
With `CCOC(=O)c1cnc2ccc(C)cc2c1Nc1ccc(N2CCOCC2)cc1` the Potency was inconclusive: 22.4 µM [inhibitor, single point].
For `COC(=O)c1cc2ccc(OC)cc2c2cc(OC)c(OC)cc12`, the Potency was inconclusive: 12.6 µM [inhibitor, partial curve, poor fit].
With `COc1cccc(CNC(=O)c2cc3c(cc2Cl)N2CCCCCC2=NS3(=O)=O)c1` the “activity change, negative = inhibition” value was inactive: -7.32%.
For `COc1ccc(C(=O)Nc2ncc(C)s2)cc1S(=O)(=O)N1CCCC1`, the Potency was inconclusive: 6.7 µM [inhibitor, partial curve, poor fit].
For `CCCCn1c(N)c(N(CCOC)C(=O)CCNC(=O)c2ccccc2Cl)c(=O)[nH]c1=O`, the “activity change, negative = inhibition” value was inactive: 8.07%.
In the case of `C/C(=N\Nc1nc2ccccc2[nH]1)c1ccc2c(c1)OCO2`, the Potency is reported as inconclusive: 25.1 µM [inhibitor, single point].
With `N#Cc1ccccc1OCCCN1CCC(C(O)(c2ccccc2)c2ccccc2)CC1` the Potency was inconclusive: 22.4 µM [inhibitor, single point].
With `Cc1cc(O)ccc1Nc1nc(-c2cccnc2)cs1` the “activity change, negative = inhibition” value was inactive: 70.7%.
For `COc1ccc(N(CC(=O)Nc2nc3ccc(C)cc3s2)S(=O)(=O)c2c(C)nn(C)c2C)cc1`, the Potency was inconclusive: 28.2 µM [inhibitor, single point].
For `O=C1N[C@H](Cc2ccccc2)COC(=O)[C@H](Cc2ccc(F)cc2)C/C=C\C[C@@H]1CC(=O)N(CCO)Cc1ccccc1`, the Potency was inconclusive: 25.1 µM [inhibitor, single point].
With `COc1ccc(NC(=O)CCc2c(C)nc3c(-c4ccc(F)cc4)c(C)nn3c2C)c(OC)c1` the “activity change, negative = inhibition” value was inactive: -6.64%.
For `O=C(c1ccc(F)cc1)n1cc(C(=S)N2CCOCC2)c2ccccc21`, the Potency was inconclusive: 37.7 µM [inhibitor, single point].
In the case of `CC(=O)N1CCN(c2ccc(NC(=O)c3ccc(N4CCCC4)c([N+](=O)[O-])c3)cc2Cl)CC1`, the Potency is reported as inconclusive: 12.6 µM [inhibitor, partial curve].
For `COc1cc2c(cc1OC)C(COc1ccc3c(C)cc(=O)oc3c1)N(C(=O)CC(C)C)CC2` (configuration not stated), the “activity change, negative = inhibition” value was inactive: -8.56%.
For `O=C1c2ccccc2C(=O)N1CC(O)COc1cccc2ccccc12` (configuration not stated), the “activity change, negative = inhibition” value was inactive: -1.78%.
With `N#Cc1cc2cc3c(cc2nc1SCC(=O)N1CCOCC1)OCCO3` the activity change, negative = inhibition was inconclusive: -67% [inhibitor].
With `CCC(C)(C)C1CCc2c(sc(NC(=O)c3ccccc3C(=O)O)c2C#N)C1` (configuration not stated) the “activity change, negative = inhibition” value was inactive: 13.9%.
